{"source": "paper PMC6030096", "about": "“Synergy of Physico-chemical and Biological Experiments for Developing a Cyclooxygenase-2 Inhibitor” (Scientific Reports, 2018)", "key": {"[1]": {"system": "acetic acid induced writhings in rat", "experiment": "Acetic acid induced writhing (analgesic activity)"}, "[2]": {"system": "carrageenan induced paw edema", "experiment": "Carrageenan induced paw edema, effect on pre-existing inflammation", "type": "in vivo, rat", "settings": "10 mg kg^−1 ip 60 min after carrageenan", "description": "Paw thickness (mm) was used as an index of inflammation and measured at 30 min, 1 h, 2 h, 3 h, 4 h, 5 h, 6 h, 8 h, and 24 h after the carrageenan injection.\nPaw thickness (mm) was used as index of inflammation and measured at 30 min, 1 h, 2 h, 3 h, 4 h, 5 h, 6 h, 8 h, and 24 h after the carrageenan injection."}, "[3]": {"experiment": "Rat pharmacokinetic study", "type": "in vivo", "settings": "for half-life: ip, 10 mg/kg", "description": "The blood samples were withdrawn from jugular vein at an interval of 30, 45, 60 min and 2, 3, 4, 6, 8, 11, 24 h. The plasma fraction was obtained by centrifugation at 4 °C, 8000 rpm for 6 min and stored at −20 °C. The samples for LC-MS were prepared by using protein precipitation method.\nThe in vivo pharmacokinetic properties were evaluated using male wistar rat (250–300 g). The compound at 10 mg kg^−1 dose was suspended in 0.1% CMC and administered intraperitonealy to the rats. The animals were anesthetized with ketamine (50 mg kg^−1 i.p). The blood samples were withdrawn from jugular vein at an interval of 30, 45, 60 min and 2, 3, 4, 6, 8, 11, 24 h of drug administration and collected in heparinised tubes. Samples were withdrawn in triplicate (3 samples/time interval). 100 μL of blood sample was withdrawn at each interval from one animal. The plasma fraction was obtained by centrifugation at 4 °C, 8000 rpm for 6 min. The samples were stored at −20 °C. The samples for LC-MS were prepared by using protein precipitation method. 100 μL plasma sample was taken in 1.5 mL tube and vortex for 3 min. 300 μL acetonitrile with internal standard was added to the above tube and vortex for 5 min. The contents of the tube were centrifuged at 4 °C, 16000 rpm for 40 min. The compound with initial concentration 3 mg mL^−1 followed by serial dilution was used for obtaining standard curve. LC-MS was performed with Dionex ultimate 3000 HPLC system attached to Bruker MicroTof QII mass spectrometer. 50 mm, 5 μm PRP C18 column was used for HPLC and the gradient mobile phase was consisting of water and acetonitrile (each containing 0.1% formic acid). […] The column eluent was introduced to the ESI source of mass spectrometer operating in +ve mode. The different pharmacokinetic parameters such as t½ lives (min), AUC (area under curve), Cmax (µg/ml), tmax (min), mean residence time (min) were determined following non compartmental analysis in PK solver software."}, "[4]": {"system": "COX, LOX, nitric oxide pathways and calcium channel", "experiment": "Mode of action study in acetic acid writhing (pretreatment with substance P, L-arginine, L-NAME, A23187)", "type": "in vivo", "settings": "rat", "description": "All the doses were administered intraperitoneally.\nSubstance P is known for activating COX and LOX[30].\nAll the drugs were administered intraperitoneally.\nFor investigating the involvement of calcium channel, the animals were pretreated with A23187."}, "mice": {"system": "mice", "experiment": "Acute toxicity study (oral, 14 days)"}, "[5]": {"experiment": "Acute toxicity study (oral, 14 days)", "settings": "mouse, in vivo, po"}, "[6]": {"settings": "male, Wistar, plasma, 10 mg/kg ip"}}, "note": "Read-outs that look alike come from different tables or passages of the source."}
{"smiles": "O=C1NC(=O)C(=Cc2cn(C[C@H](O)Cn3c4ccccc4c(=O)c4ccccc43)c3ccccc23)C(=O)N1", "note": "[(S)-3a]", "values": [{"measurement": "decrease in number of acetic acid induced writhing", "setting": "[1]; 10 mg kg^−1 ip", "result": 50, "unit": "%"}, {"measurement": "effect on number of acetic acid induced writhing vs control", "setting": "[1]; ip", "result": "significantly decreased"}, {"measurement": "effect on pre-existing paw edema (paw thickness)", "setting": "[2]; after 5 h of treatment", "result": "decrease paw edema"}, {"measurement": "duration of decrease in paw edema", "setting": "[2]; after 24 h of treatment", "result": "sustained even after 24 h"}, {"measurement": "t1/2 (half-life)", "setting": "[3]; 10 mg kg^−1 ip", "result": "~ 7.5 h"}, {"measurement": "concentration of the compound in the serum after 24 h", "setting": "[3]; 10 mg kg^−1 ip, 24 h", "result": "appreciable concentration"}, {"measurement": "AUC(0-t)", "setting": "[3]; [6]", "result": 347, "unit": "µg·h/mL"}, {"measurement": "Cmax", "setting": "[3]; [6]", "result": 26100, "unit": "ng/mL"}, {"measurement": "Tmax", "setting": "[3]; [6]", "result": 4, "unit": "h"}, {"measurement": "AUC(0-inf)", "setting": "[3]; male, Wistar, plasma, 10 mg/kg ip, read-out: AUC 0-inf_obs (converted)", "result": 399, "unit": "µg·h/mL"}, {"measurement": "MRT inf", "setting": "[3]; male, Wistar, plasma, 10 mg/kg ip, read-out: MRT 0-inf_obs (converted)", "result": 11.7, "unit": "h"}, {"measurement": "half-life", "setting": "[3]; male, Wistar, plasma, 10 mg kg^−1 ip, read-out: t1/2 (half-life) (converted)", "result": 7.5, "unit": "h"}, {"measurement": "half-life", "setting": "[3]; male, Wistar, plasma, 10 mg/kg ip, read-out: t1/2", "result": 7.57, "unit": "h"}, {"measurement": "analgesic effect after pretreatment with L-arginine, L-NAME and A23187", "setting": "[4]", "result": "did not affect"}, {"measurement": "analgesic effect after pretreatment with substance P", "setting": "[4]", "result": "attenuated the analgesic effect"}, {"measurement": "serum creatinine, BUN, uric acid, creatinine kinase, ALT, AST, ALP, cholesterol vs untreated", "setting": "mice; oral 2000 mg kg^−1", "result": "did not produce any significant alterations"}, {"measurement": "behavioural abnormality or mortality", "setting": "mice; oral 50, 300 and 2000 mg kg^−1, 14 days", "result": "No gross behavioural abnormality or mortality"}, {"measurement": "body weight vs normal animals", "setting": "mice; oral, 14 days", "result": "did not observe changes"}, {"measurement": "histological sections (myocardium, kidney, liver) vs control", "setting": "mice; oral, day 14", "result": "no remarkable alterations"}, {"measurement": "MTD at 14 days", "setting": "[5]", "result": 2000, "unit": "mg/kg"}]}
